# Reference: PubChem BioAssay AID1346428 (National Center for Advancing Translational Sciences (NCATS), 2018)
# Values joined by “and” are separate entries in the source; they are usually repeats but may differ in a detail not shown here. Identical values can stand only once. About 1,200 (2.5%) of roughly 48,000 compounds were called active. Another 2% or so got no clear call; they are omitted.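 The calls were made as follows: active = activation of at least 60% and not above a set upper limit (about 1 call in 100 departs from these limits); inconclusive = activation of 40% to 60%, or above that upper limit; inactive = activation under 40%.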 The list shows a part of the results.
# Target: Probable G-protein coupled receptor 32 (Homo sapiens) (UniProt O75388)
# Test: qHTS for Agonists of Human Resolvin D1 Receptor DRV1; also: 0% is about no effect
# Conditions: CHO-K1 GPR32 beta-arrestin PathHunter luminescence, 90 min; at 76.9 µM; hits give high values; zero percent set by DMSO-only wells
# Outline: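 Using DMSO wells as EC0, agonist-induced signal was taken as chemiluminescence from beta-Gal reconstituted upon beta-arrestin recruitment to GPR32 in CHO-K1 cells after 90 min compound treatment.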
# Sequence of UniProt O75388 (O75388 whole entry, looked up): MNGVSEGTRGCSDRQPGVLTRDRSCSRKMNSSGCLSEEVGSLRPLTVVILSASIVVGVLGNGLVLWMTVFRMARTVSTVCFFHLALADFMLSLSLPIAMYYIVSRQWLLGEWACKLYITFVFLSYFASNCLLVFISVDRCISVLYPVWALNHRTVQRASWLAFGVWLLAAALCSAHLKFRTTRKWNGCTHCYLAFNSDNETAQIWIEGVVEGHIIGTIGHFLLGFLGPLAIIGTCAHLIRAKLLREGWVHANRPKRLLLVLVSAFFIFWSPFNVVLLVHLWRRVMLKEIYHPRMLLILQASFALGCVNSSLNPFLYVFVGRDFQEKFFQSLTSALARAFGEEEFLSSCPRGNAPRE
row,Structure (SMILES),activation
1,O=C(CSc1nnc2scc(-c3ccc(Cl)cc3)n12)Nc1ccc(F)cc1,inactive: -11.9%
2,Cc1ccc(NC(=O)n2ncc3c(C)cccc32)c(C)c1,inactive: -18.9%
3,CCc1nn(CC(=O)N2CCN(c3cccc(C)c3)C(C)C2)c(=O)c2cc3sccc3n12 (stereo not drawn),inactive: -8.42%
4,CCOCCCNC(=O)C(c1ccc(C)cc1)N(Cc1ccc2c(c1)OCO2)C(=O)c1ccccc1O (stereo not drawn),inactive: -15.9%
5,COc1cccc(C2=CC(c3ccccc3F)n3ncc(C(=O)Nc4ccc(F)cc4)c3N2)c1 (stereo not drawn),active: 70.5%
6,Cc1ccc(Nc2c(-c3cccnc3)nc3ccc(C)cn23)cc1,inactive: -20.9%
7,COC(=O)[C@H]1[C@H]2C[C@@H]3c4[nH]c5cc(OC)ccc5c4CCN3C[C@H]2C[C@@H](OC(=O)c2cc(OC)c(OC)c(OC)c2)[C@@H]1OC,inactive: -5.02% and inactive: -18.6%
8,CCc1ccc(CNC(=O)c2ccc3c(c2)c(C)c(C)n3Cc2ccccc2)cc1,inactive: -21.5%
9,O=C(NC1CCCCC1)c1ccc(CSc2nc3ccncc3n2Cc2cccc(F)c2)cc1,inactive: -12%
10,Cc1ccc(N(C)C(=O)Cn2ncc3c([nH]c4ccccc43)c2=O)cc1C,inactive: 48.4%
11,O=C(CSc1nc2c([nH]c3ccccc32)c(=O)n1-c1ccccc1)Nc1cccc(C(F)(F)F)c1,inactive: -28.9%
12,CCOC(=O)N1CCc2c(sc(NCc3cc(OC)ccc3OC)c2C(=O)Nc2cc(OC)ccc2OC)C1,inactive: 10.9%
13,CCOCCCNC(=O)C1CCN(c2nc3ccc(C)cc3[nH]2)CC1,inactive: -1.18%
14,COC(=O)c1cc(-c2ccc(Cl)cc2)c2c(=O)[nH]c(=O)n(C)c2n1,inactive: 35%
15,Cc1ccc(S(=O)(=O)NC(=O)NC2CCCCCCC2)cc1,inactive: -6.01%
16,Cc1ccc(Cn2c(=O)n(CCc3ccccc3)c(=O)c3sc4ccccc4c32)cc1,inactive: 7.41%
17,COc1ccc(N2CCN(C(=O)Cn3cnc4sc(C)c(S(=O)(=O)N5CCCCC5)c4c3=O)CC2)cc1,inactive: -11.7%
18,Cc1ccc(NC(=O)CCn2cccn2)c(C)c1,inactive: -0.265%
19,COc1ccc(NC(=O)CCc2c(C)nn(-c3ccc(N4CCCC4)nn3)c2C)cc1Cl,inactive: -11.4%
20,O=C(Nc1nnc(S(=O)(=O)N2CCCCCC2)s1)c1ccc(Cl)cc1,inactive: 15.8%
21,COc1ccc(NC(=O)CC(C)S(=O)(=O)c2cc3c(cc2C)NC(=O)CO3)cc1OC (stereo not drawn),inactive: 6.58%
22,Cc1ccc2c(=O)cc(C(=O)Nc3c(C(=O)c4ccc(F)cc4)oc4ccccc34)oc2c1C,inactive: -14.8%
23,CN=c1nc(-c2ccccc2)n(-c2ccccc2)s1,inactive: -2.25%
24,CSc1nn(CC(=O)Nc2cc(C)ccc2C)c(N)c1S(=O)(=O)c1ccccc1,inactive: 27.2%
25,COc1ccccc1CNC(=O)C1CCN(c2nnc(C)c3c(C)n(-c4ccccc4)nc23)CC1,inactive: -18.4%
26,CCOC(=O)Cn1c(=O)oc2cc(S(=O)(=O)N3CCN(c4ccc(F)cc4)CC3)ccc21,inactive: 12.8%
27,CCC(CC)C(=O)Nc1cc(-c2nc3cccnc3s2)ccc1C,inactive: -12%

row,Structure (SMILES),activation
1,Cc1cccc(C)c1OC(=O)CSc1nnc(-c2ccc3c(c2)OCO3)o1,inactive: -7.72%
2,Cc1ccc(NC(=O)CN2C(=O)CC(c3ccc(C)c(C)c3)=Nc3ccccc32)cc1,inactive: -0.68%
3,COc1ccc(CCNC(=O)c2c(C)oc3ncn(CC(C)C)c(=O)c23)c(OC)c1,inactive: -0.501%
4,COc1ccc(Nc2c(-c3ccsc3)nc3nc(C)cc(C)n23)cc1,inactive: -32.7%
5,CC(C)C(=O)Nc1nnc(S(=O)(=O)N2c3ccccc3CC2C)s1 (stereo not drawn),inactive: -1.7%
6,COC(=O)c1c(C)sc(-c2c(-c3ccc(OC)c(F)c3)[nH]c3c2c(=O)n(C)c(=O)n3C)c1O,inactive: 29.5%
7,CCSc1nc2ccccc2c(OCc2cc(C(=O)OC)ccc2OC)c1C(=O)OC,inactive: -6.99%
8,Cc1ccc(C(C)C)c(OCC(=O)Nc2ccc(O)c(-c3nc4cc(Cl)ccc4o3)c2)c1,inactive: -27.6%
9,CCCOc1cccc(C(=O)Nc2cccc(NC(=O)c3ccc(Cl)cc3Cl)c2)c1,inactive: -6.6%
10,O=C1CCSC2(C(=O)N(Cc3ccc(F)cc3)c3ccccc32)N1c1cccc(F)c1 (stereo not drawn),inactive: -21.7%
11,CCN1C(=O)c2ccccc2S(=O)c2ccc(C(=O)NCc3ccc(Cl)cc3)cc21 (stereo not drawn),inactive: -27.2%
12,CCN(c1cccc(C)c1)S(=O)(=O)c1c(C)nc2sc(C)cn2c1=O,inactive: -14.8%
13,O=C(Cn1cc(C(=O)c2cccs2)c2ccccc21)Nc1ccc(Br)cc1,inactive: -15.4%
14,CCOC(=O)c1c(-c2ccccc2)oc2ccc(OCc3cccc(Br)c3)cc12,inactive: -13.6%
15,COc1ccc(C(=O)Oc2cc(-c3ccc(OC)c(OC)c3)cc(=O)c3c(C)oc(C)c23)cc1,inactive: -18.1%
16,CCS(=O)(=O)Nc1ccc(-c2cn3c(C)csc3n2)cc1,inactive: -8.78%
17,COc1cccc(C(c2sc3nc(-c4ccco4)nn3c2O)N2CCN(C)CC2)c1 (stereo not drawn),inactive: -9.37%
18,COc1ccc(CNC(=O)CN(C)S(=O)(=O)c2ccc3c(c2)c(=O)n(C)c(=O)n3C)cc1,inactive: 10.8%
19,Cc1ccc(CNC(=O)Cn2c3ncccc3c(=O)n2-c2ccc(C)cc2)cc1,inactive: -20.7%
20,COc1ccc(C)c2sc(N3CCN(C(=O)c4ccco4)CC3)nc12,active: 86%
21,CCOc1ccc(CNC(=O)CSc2c3c(nc4ccc(Cl)cc24)CCCC3)cc1,inactive: -6.74%
22,COc1ccccc1N1CCN(c2cc(C)nc3nncn23)CC1,inactive: 7.61%
23,CC(C)c1cc(-c2nc(-c3cccc(Cl)c3)no2)n[nH]1,inactive: 24.5%
24,Cc1nn2c(=O)cc(COC(=O)c3ccc(NC(=O)COc4ccccc4F)cc3)nc2s1,active: 62.4%
25,Cc1ccc2oc(C(=O)Nc3sc4c(c3C(=O)NCc3ccco3)CCC4)cc(=O)c2c1,inactive: 29.6%
26,Cc1nc2c(c(C)nn2C(C)(C)C)c(C)c1CCC(=O)Nc1ccc(F)cc1,active: 74.1%
